ChEMBL document CHEMBL4888484, “Replenishing the malaria drug discovery pipeline: Screening and hit evaluation of the MMV Hit Generation Library 1 (HGL1) against asexual blood stage Plasmodium falciparum ,using a nano luciferase reporter read-out” (2022)
Among all 150,000 compounds or so, about 540 (0.36%) showed an effect of 50% or more. The list shows a part of the results.

Each molecule was assayed on Plasmodium falciparum (assay: Primary screen in NF54 nanoGlo assay, in single point, at 2uM, 72h; a lower Z score goes with more inhibition). Details: timepoint 72 hour.
Format: functional, Erythrocyte

Compound | % Inhibition [%] | Z score
Cc1ccccc1C(=O)N1CCc2cc(S(=O)(=O)N3CCOCC3)ccc21 | -1 | 0.08
Cc1cccc(NC(=O)Cn2c(=O)n(C(C)C)c(=O)c3nscc32)c1 | 5 | -0.61
O=C1CCc2cc(F)cc(NC(=O)NC[C@@H](c3ccco3)N3CCCC3)c2N1 | -3 | 0.57
CCn1c([C@H]2CCCNC2)nn(Cc2cc(F)ccc2C)c1=O | -3 | 0.54
O=C(C1=NN(c2ccccc2)C(=O)CC1)N1CCCc2ccccc21 | -7 | 0.85
CCOc1ccc2c(c1)[C@@H](NS(=O)(=O)Cc1ccccc1C)CCO2 | -5 | 0.74
O=C(CCNS(=O)(=O)c1ccc(Cl)cc1)N1CCCCCC1 | -20 | 3.43
Cc1nn(C)c(C)c1CN(CCO)Cc1cc(O)c2cccc(F)c2n1 | -15 | 1.9
C[C@H]1CCCCN1c1nnc(C(=O)NCCc2ccccc2)c2ccccc12 | -9 | 1.04
O=C(C[C@H]1CCCOC1)N1CCC2(CC1)Cc1cccc(c1)Oc1cccc(c1)CCNC2=O | -7 | 1.29
CCOc1cccc(C(=O)N(C)c2ccc(-c3ccccc3)nn2)c1 | -9 | 1.19
O=C(Nc1cnn(Cc2cc(F)ccc2Cl)c1)[C@@H](O)C1CCOCC1 | -6 | 1.13
O=C(Cc1ccc(Cn2c(=O)[nH]c3ccsc3c2=O)cc1)N1CCN(c2ccc(F)cc2)CC1 | 25 | -2.86
O=C1CC(CC(=O)N2CC3CCC2C3)(c2ccccc2)C(=O)N1CCc1ccccn1 (stereo not drawn) | 5 | -0.61
CCC[C@@H](CC(=O)O)NC(=O)c1cncc(F)c1 | -11 | 2.06
COc1cc(CS(=O)(=O)[C@@H](C)c2ccc3c(c2)CCC3)ccn1 | -1 | 0.17
O=C(CCc1ccc2c(c1)OCO2)N1CCN(c2ccccc2O)CC1 | -6 | 1.07
O=C(Nc1ccc2[nH]c(=O)[nH]c2c1)c1cccs1 | -1 | 0.2
Cc1cn2cc(C(=O)NCCN3CC[C@H](c4ccccc4C)C3)ccc2n1 | 4 | -0.59
CCn1nccc1[C@@H]1CCCN1S(=O)(=O)c1ccc(Br)cc1 | -1 | 0.22
Cc1cc(NC(=O)NC[C@H]2CCC3(CCC3)CO2)cnc1C(F)F | -8 | 1.07
Cc1ncccc1NC(=O)C12CCC(C(F)(F)F)(CC1)CC2 | -2 | 0.35
O=C(CN1CCCCC1=O)Nc1ccc(OC2CCC2)c(F)c1 | -8 | 1.6
COc1ccc(Nc2nc(-c3cccc(Cl)c3)c3c(n2)-c2ccccc2OC3)cc1 | -9 | 1.3
CN(C)C(=O)CCN(CCO)Cc1cc(Br)ccc1F | -5 | 0.69
COc1ccc(-n2cnnc2C(c2ccccc2)c2ccccc2)cc1 | 7 | -0.89
O=S(=O)(c1ccc(N2CCCCC2)nc1)N1CCCC1 | -8 | 1.23

Compound | % Inhibition [%] | Z score
CN1CCC(n2nc([C@H]3CCOC3)nc2C2CC=CC2)CC1 | -10 | 1.88
CCCn1cnnc1CNC(=O)c1cc(Cn2nc(C)cc2C)[nH]n1 | -13 | 2.69
CCc1ccc([C@@H]2CCCN2c2nc(N)nc(C3CC3)n2)o1 | -2 | 0.29
CC1(C)C(=O)NCCN1C(=O)C[C@@H](c1ccc(O)cc1)c1ccccc1O | 12 | -1.56
CCC(Oc1ccc2c(c1)C(c1ccc(F)cc1)N(C(=O)C(C)(C)C)CC2)C(=O)NCC1CCCO1 (stereo not drawn) | 2 | -0.37
Cc1cccc2c(=O)n(CC(=O)NCc3ccc(N4CCN(C)CC4)nc3)cnc12 | -9 | 0.84
Cc1c(CC(=O)N2CCc3nc[nH]c3C23CCC3)cnn1C | -7 | 0.95
N#Cc1cc(Oc2nc3ccccc3s2)c(N2CCOCC2)cc1C#N | 6 | -0.73
COc1ccc(-c2cncc(CN3CCN(C)CC3)c2)cc1OC | -5 | 0.7
COc1cncc(S(=O)(=O)NC2(c3ccccc3F)COC2)c1 | 18 | -2.34
Cn1cnc2c3ccccc3n(Cc3ccccc3)c2c1=O | -8 | 1.6
CCOc1ccc(NC(=O)CC2C(=O)NC3CCCCC3N2C(=O)C(C)C)cc1 (stereo not drawn) | -17 | 2.26
Cc1cc(C(=O)N2CCC[C@@]3(CCC(=O)N(Cc4cccnc4)C3)C2)n(C)n1 | -16 | 1.78
CCn1nccc1C(=O)N1CCCC[C@@]1(C)c1noc(C2CC2)n1 | 31 | -3.56
CN(C)CCNCCOc1ccccc1 | -4 | 0.56
Cc1ccc(-c2nnc(-c3cccc(S(=O)(=O)N(C)C)c3)o2)n1C | -18 | 2.78
O=C(Cn1nnc2ccccc21)NC1CCCCC1 | -10 | 1.41
O=C(c1ccc(F)cc1)N1C2COCC1C2 | -8 | 1.08
c1cnc(-c2noc(C3CCCCCC3)n2)cn1 | 2 | -0.27
COC(=O)CCNC(=O)COc1cnn(C)c1C(F)(F)F | -4 | 0.55
Cn1nc(CC2CCN(C(=O)c3cnc[nH]3)CC2)n(-c2ccccc2)c1=O | 1 | -0.24
Cc1ccc(N2C(=O)N[C@H]3C[C@]2(C)Oc2ccc(Br)cc23)cc1C | -1 | 0.14
O=C1O[C@](Nc2ccc(Cl)cc2)(c2ccc(Cl)cc2)c2ccccc21 | 1 | -0.2
CN(Cc1ccccc1)c1nc2ncn(CC(=O)Nc3cccc(Br)c3)c(=O)c2s1 | 26 | -3.47
O=C(c1cnn2cc(CCO)cnc12)N1CC=C(c2ccccc2)CC1 | -7 | 0.97
CN1CCCN(C(=O)c2ccncc2)c2nc3ccccc3nc21 | -8 | 0.96
CN(C)S(=O)(=O)N1CCCC[C@H]1c1n[nH]c2c1COCC2 | 2 | -0.2
